# Test results from patent publication US10299477B2 (priority 2015, dated 2019).
# How the values were obtained:
# Format in all cases: in vivo
# [1] = test system: Puccinia recondita; assay: Test Example E: Brown rust on wheat; settings: for Test E (control value class, brown rust on wheat): in vivo; for Test E (control value class): brown rust on wheat, Puccinia recondita; for Test E (control value class) / Test E control value (brown rust on wheat): 250 ppm spray; for Test E control value (brown rust on wheat): preventive, control value class; for Test E control value: Brown rust on wheat
# Excerpt: [Test Example E] Brown Rust on Wheat
# [2] = test system: Botrytis cinerea; assay: Test Example B: Gray mold on tomato; settings: for Test B (control value class, gray mold on tomato): in vivo; for Test B (control value class): gray mold on tomato, Botrytis cinerea; for Test B (control value class) / Test B control value (gray mold on tomato): 250 ppm spray; for Test B control value (gray mold on tomato): preventive, control value class; for Test B control value: Gray mold on tomato
# Excerpt: [Test Example B] Gray Mold on Tomato
# Seeds of a test plant (tomato variety: Oogata Fukuju) were planted followed by cultivating until three to five first leaves (true leaves) appeared.
# [3] = test system: Blumeria graminis f sp. hordei; assay: Test Example D: Powdery mildew on barley; settings: for Test D (control value class, powdery mildew on barley): in vivo; for Test D (control value class): powdery mildew on barley; for Test D (control value class) / Test D control value (powdery mildew on barley): 250 ppm spray; for Test D control value (powdery mildew on barley): preventive, control value class; for Test D control value: Powdery mildew on barley
# Excerpt: [Test Example D] Powdery Mildew on Barley
# After the sprayed dilutions were dried, conidia of Blumeria graminis f sp. hordei were inoculated to the plants by shaking off.
# [4] = test system: Alternaia brassicicola; assay: Test Example C: Alternaria sooty spot on cabbage; settings: for Test C (control value class, Alternaria sooty spot on cabbage): in vivo; for Test C (control value class) / Test C control value: Alternaria sooty spot on cabbage; for Test C (control value class) / Test C control value (Alternaria sooty spot on cabbage): 250 ppm spray; for Test C control value (Alternaria sooty spot on cabbage): preventive, control value class
# Excerpt: [Test Example C] Alternaria Sooty Spot on Cabbage
# Seeds of a test plant (cabbage variety: Shikidori) were planted followed by cultivating until the cotyledons extended.
# [5] = test system: Plasmopara viticola; assay: Test Example G: Downy mildew on vine; settings: for Test G (control value class, downy mildew on vine): 250 ppm, sprayed 2.5 ml/pot before inoculation, evaluated 7-10 days after inoculation; for Test G (control value class): downy mildew on vine, Plasmopara viticola, 250 ppm spray; for Test G (control value class) / Test G control value (downy mildew on vine) / Test G control value: 7-10 days after inoculation; for Test G control value (downy mildew on vine): 250 ppm spray (2.5 ml/pot), preventive, control value class; for Test G control value: Downy mildew on vine, 250 ppm sprayed before inoculation
# Excerpt: [Test Example G] Downy Mildew on Vine
# Seeds of a test plant (grape variety: Neomuscat) were planted followed by cultivating until three to four first leaves appeared. […] After the sprayed dilutions were dried, a zoosporangia suspension (1-2×10^4 zoosporangia/ml) of Plasmopara viticola was inoculated to the plants by spraying.
smiles,measurement,setting,value
Cc1cc(-c2cc(F)cc(F)c2Cl)c(-c2c(F)cc(F)cc2F)n(C)c1=O [Compound 694],"Test E (control value class, brown rust on wheat)",[1],H (H shows more than 50% of control values)
same,"Test B (control value class, gray mold on tomato)",[2],H (H shows more than 50% of control values)
same,"Test D (control value class, powdery mildew on barley)",[3],H (H shows more than 50% of control values)
same,"Test C (control value class, Alternaria sooty spot on cabbage)",[4],H (H shows more than 50% of control values)
same,"Test G (control value class, downy mildew on vine)",[5],H (H shows more than 50% of control values)
COc1cc(F)c(-c2c(-c3ccccc3Cl)ccc(=O)n2C)c(F)c1 [Compound 433],Test E (control value class),[1],H (H shows more than 50% of control values)
same,Test B (control value class),[2],H (H shows more than 50% of control values)
same,Test D (control value class),[3],H (H shows more than 50% of control values)
same,Test C (control value class),[4],H (H shows more than 50% of control values)
same,Test G (control value class),[5],L (L shows 50% or less of control values)
CCn1c(-c2c(F)cccc2F)c(-c2ccc(Cl)cc2)cc(Cl)c1=O [Compound 266],Test E control value (brown rust on wheat),[1],L (L shows 50% or less of control values)
same,Test B control value (gray mold on tomato),[2],L (L shows 50% or less of control values)
same,Test D control value (powdery mildew on barley),[3],L (L shows 50% or less of control values)
same,Test C control value (Alternaria sooty spot on cabbage),[4],H (H shows more than 50% of control values)
same,Test G control value (downy mildew on vine),[5],L (L shows 50% or less of control values)
CCn1c(-c2c(F)cccc2F)c(-c2cccc(Cl)c2)ccc1=O [Compound 171],Test E control value,[1],H (H shows more than 50% of control values)
same,Test B control value,[2],H (H shows more than 50% of control values)
same,Test D control value,[3],H (H shows more than 50% of control values)
same,Test C control value,[4],H (H shows more than 50% of control values)
same,Test G control value,[5],H (H shows more than 50% of control values)
C#Cc1cc(-c2cc(OC)ccc2Cl)c(-c2c(F)cccc2F)n(CC)c1=O [Compound 351],Test E control value (brown rust on wheat),[1],H (H shows more than 50% of control values)
same,Test B control value (gray mold on tomato),[2],H (H shows more than 50% of control values)
same,Test D control value (powdery mildew on barley),[3],H (H shows more than 50% of control values)
same,Test C control value (Alternaria sooty spot on cabbage),[4],H (H shows more than 50% of control values)
same,Test G control value (downy mildew on vine),[5],L (L shows 50% or less of control values)
CCn1c(-c2c(F)cccc2F)c(-c2cc(Cl)cc(Cl)c2Cl)cc(Cl)c1=O [Compound 451],Test E (control value class),[1],H (H shows more than 50% of control values)
same,Test B (control value class),[2],H (H shows more than 50% of control values)
same,Test D (control value class),[3],H (H shows more than 50% of control values)
same,Test C (control value class),[4],H (H shows more than 50% of control values)
same,Test G (control value class),[5],L (L shows 50% or less of control values)
CC(C)COc1ccc(Cl)c(-c2ccc(=O)n(C)c2-c2c(F)cccc2F)c1 [Compound 259],Test E control value (brown rust on wheat),[1],L (L shows 50% or less of control values)
same,Test B control value (gray mold on tomato),[2],L (L shows 50% or less of control values)
same,Test D control value (powdery mildew on barley),[3],L (L shows 50% or less of control values)
same,Test C control value (Alternaria sooty spot on cabbage),[4],H (H shows more than 50% of control values)
same,Test G control value (downy mildew on vine),[5],L (L shows 50% or less of control values)
CCOc1cc(F)c(-c2c(-c3ccccc3Cl)cc(Cl)c(=O)n2C)c(F)c1 [Compound 734],"Test E (control value class, brown rust on wheat)",[1],H (H shows more than 50% of control values)
same,"Test B (control value class, gray mold on tomato)",[2],H (H shows more than 50% of control values)
same,"Test D (control value class, powdery mildew on barley)",[3],H (H shows more than 50% of control values)
same,"Test C (control value class, Alternaria sooty spot on cabbage)",[4],H (H shows more than 50% of control values)
same,"Test G (control value class, downy mildew on vine)",[5],H (H shows more than 50% of control values)
O=c1c(Cl)cc(-c2cccc(Cl)c2F)c(-c2c(F)cccc2F)n1CC(F)F [Compound 495],Test E (control value class),[1],L (L shows 50% or less of control values)
same,Test B (control value class),[2],L (L shows 50% or less of control values)
same,Test D (control value class),[3],L (L shows 50% or less of control values)
same,Test C (control value class),[4],L (L shows 50% or less of control values)
same,Test G (control value class),[5],L (L shows 50% or less of control values)
Cn1c(-c2c(F)cccc2F)c(-c2cc(F)cc(F)c2F)ccc1=O [Compound 439],Test E (control value class),[1],H (H shows more than 50% of control values)
same,Test B (control value class),[2],H (H shows more than 50% of control values)
same,Test D (control value class),[3],H (H shows more than 50% of control values)
same,Test C (control value class),[4],H (H shows more than 50% of control values)
same,Test G (control value class),[5],L (L shows 50% or less of control values)
CCn1c(-c2c(F)cccc2F)c(-c2cccc(F)c2Cl)cc(Br)c1=O [Compound 745],"Test E (control value class, brown rust on wheat)",[1],H (H shows more than 50% of control values)
same,"Test B (control value class, gray mold on tomato)",[2],H (H shows more than 50% of control values)
same,"Test D (control value class, powdery mildew on barley)",[3],H (H shows more than 50% of control values)
same,"Test C (control value class, Alternaria sooty spot on cabbage)",[4],H (H shows more than 50% of control values)
same,"Test G (control value class, downy mildew on vine)",[5],H (H shows more than 50% of control values)
CCn1c(-c2c(F)cccc2F)c(-c2ccccc2[S+](C)[O-])ccc1=O (centres unmarked) [Compound 264],Test E control value (brown rust on wheat),[1],L (L shows 50% or less of control values)
same,Test B control value (gray mold on tomato),[2],H (H shows more than 50% of control values)
same,Test D control value (powdery mildew on barley),[3],L (L shows 50% or less of control values)
same,Test C control value (Alternaria sooty spot on cabbage),[4],L (L shows 50% or less of control values)
same,Test G control value (downy mildew on vine),[5],L (L shows 50% or less of control values)
CCn1c(-c2c(F)cccc2F)c(-c2ccccc2C(F)(F)F)cc(Cl)c1=O [Compound 147],Test E control value,[1],H (H shows more than 50% of control values)
same,Test B control value,[2],L (L shows 50% or less of control values)
same,Test D control value,[3],L (L shows 50% or less of control values)
same,Test C control value,[4],L (L shows 50% or less of control values)
same,Test G control value,[5],L (L shows 50% or less of control values)
Cn1c(-c2c(F)cc(F)cc2F)c(-c2cccc(F)c2Cl)cc(Br)c1=O [Compound 503],Test E (control value class),[1],H (H shows more than 50% of control values)
same,Test B (control value class),[2],H (H shows more than 50% of control values)
same,Test D (control value class),[3],H (H shows more than 50% of control values)
same,Test C (control value class),[4],H (H shows more than 50% of control values)
same,Test G (control value class),[5],H (H shows more than 50% of control values)
Cn1c(-c2c(F)cccc2F)c(-c2cc(OCCC3OCCCO3)ccc2Cl)ccc1=O [Compound 318],Test E control value (brown rust on wheat),[1],H (H shows more than 50% of control values)
same,Test B control value (gray mold on tomato),[2],H (H shows more than 50% of control values)
same,Test D control value (powdery mildew on barley),[3],L (L shows 50% or less of control values)
same,Test C control value (Alternaria sooty spot on cabbage),[4],L (L shows 50% or less of control values)
same,Test G control value (downy mildew on vine),[5],L (L shows 50% or less of control values)
CCn1c(-c2c(F)cc(F)cc2F)c(-c2ccc(F)cc2Cl)cc(F)c1=O [Compound 592],"Test E (control value class, brown rust on wheat)",[1],H (H shows more than 50% of control values)
same,"Test B (control value class, gray mold on tomato)",[2],H (H shows more than 50% of control values)
same,"Test D (control value class, powdery mildew on barley)",[3],H (H shows more than 50% of control values)
same,"Test C (control value class, Alternaria sooty spot on cabbage)",[4],H (H shows more than 50% of control values)
same,"Test G (control value class, downy mildew on vine)",[5],L (L shows 50% or less of control values)
CCn1c(-c2c(F)cccc2F)c(-c2cccc(Cl)c2F)ccc1=O [Compound 472],Test E (control value class),[1],H (H shows more than 50% of control values)
same,Test B (control value class),[2],H (H shows more than 50% of control values)
same,Test D (control value class),[3],H (H shows more than 50% of control values)
same,Test C (control value class),[4],H (H shows more than 50% of control values)
same,Test G (control value class),[5],H (H shows more than 50% of control values)
Cc1cc(-c2cccc(F)c2Cl)c(-c2c(F)cc(F)cc2F)n(C)c1=O [Compound 505],Test E (control value class),[1],H (H shows more than 50% of control values)
same,Test B (control value class),[2],H (H shows more than 50% of control values)
same,Test D (control value class),[3],H (H shows more than 50% of control values)
same,Test C (control value class),[4],H (H shows more than 50% of control values)
same,Test G (control value class),[5],H (H shows more than 50% of control values)
COc1cc(F)c(-c2c(-c3cccc(F)c3Cl)ccc(=O)n2C)c(F)c1 [Compound 492],Test E (control value class),[1],H (H shows more than 50% of control values)
same,Test B (control value class),[2],H (H shows more than 50% of control values)
same,Test D (control value class),[3],H (H shows more than 50% of control values)
same,Test C (control value class),[4],H (H shows more than 50% of control values)
same,Test G (control value class),[5],L (L shows 50% or less of control values)
